Assay results reported in patent US20250075006A1 (SHANDONG SIMCERE BIOPHARMACEUTICAL, published 2025).
Values belong to the binder of their own block, whether it stands above or below them.

Tests used:
[1] = target: T1, Cyno GUCY2C ECD (his-tagged cynomolgus monkey GUCY2C protein extracellular domain fusion protein) (cynomolgus monkey, UniProt P25092 in part (human entry)); test: ELISA, plate coated with monkey GUCY2C-his, OD450
T1 construct: also called monkey GUCY2C-his; monkey GUCY2C-His
T1 chain: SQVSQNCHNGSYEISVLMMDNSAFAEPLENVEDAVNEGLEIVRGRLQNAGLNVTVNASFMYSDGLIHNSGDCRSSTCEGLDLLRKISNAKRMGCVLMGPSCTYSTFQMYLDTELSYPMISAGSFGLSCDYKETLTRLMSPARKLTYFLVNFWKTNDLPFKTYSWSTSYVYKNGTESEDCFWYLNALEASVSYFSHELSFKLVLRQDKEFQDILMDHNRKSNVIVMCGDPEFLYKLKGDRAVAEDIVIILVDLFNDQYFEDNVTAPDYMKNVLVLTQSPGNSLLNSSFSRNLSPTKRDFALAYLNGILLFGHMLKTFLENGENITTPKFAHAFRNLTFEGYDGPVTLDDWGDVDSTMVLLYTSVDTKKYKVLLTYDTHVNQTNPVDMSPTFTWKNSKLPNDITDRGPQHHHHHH
Procedure: A human GUCY2C-his protein was diluted with PBS to a final concentration of 2 μg/mL and then added to a 96-well ELISA plate at 50 μL/well. The plate was sealed with a plastic film and incubated at 4° C. overnight. The next day, the plate was washed 2 times with PBST, and a blocking buffer [PBS+2% (w/w) BSA] was added for blocking at room temperature for 2 h. The blocking buffer was discarded, and the recombinant antibody and positive and negative control antibody with a starting concentration of 100 nM serially diluted by 3 folds were added at 50 μL/well. After incubation at 37° C. for 1 h, the plate was washed 3 times with PBST. A horseradish peroxidase (HRP)—labeled secondary antibody (purchased from Merck, Cat. No. AP113P) was added for incubation at 37° C. for 1 h, and the plate was washed 5 times with PBST. A TMB substrate was added at 50 μL/well for incubation at room temperature for 10 min, and then a stop solution (1.0 M HCl) was added at 50 μL/well. The OD450 nm values were read by an ELISA plate reader (Multimode Plate Reader, EnSight, purchased from Perkin Elmer).
The monkey GUCY2C-his and murine GUCY2C-his proteins were subjected to ELISA and data analysis according to the method described in Example 4.2. The recombinant antibodies Lab306-huFc, Lab322-huFc, and Lab323-huFc have a relatively good binding activity with the monkey GUCY2C-his protein. […]

[2] = target: T2, Human GUCY2C ECD (his-tagged human GUCY2C protein extracellular domain fusion protein) (human, UniProt P25092 in part); test: SPR Biacore, antibody on Protein A, antigen injected
T2 construct: also called human GUCY2C-his; human GUCY2C-His
Procedure: The strength of antibody-antigen binding was assayed with a BIAcore 8K instrument using a Protein A capture method. First, Protein A was immobilized onto a CM4 chip (purchased from GE, BR-1005-34) using an amino coupling method. According to the instruction of the Amine Coupling Kit (purchased from GE, BR100633), NHS and EDC were mixed with HBS-EP+pH 7.4 as a mobile phase to activate the chip for about 600 s; the Protein A was diluted to 50 μg/mL with 10 mM sodium acetate (pH 4.5) and injected for 600 s, and finally, the remaining activated sites were blocked with ethanolamine. Then, the affinity of the antibody for the antigen was assayed using a multi-cycle kinetic method; in each cycle, first, the antibody to be tested was captured using the Protein A chip, and then a single concentration of antigen protein was injected. The association and dissociation processes of the antibody with the antigen protein were recorded, and finally, the chip was regenerated using Glycine pH 1.5, wherein the mobile phase was HBS-EP+(10 mM HEPES, 150 mM NaCl, 3 mM EDTA, 0.05% surfactant P20), the flow rate was 30 μL/min, the regeneration time was 30 s, and the assay temperature was 25° C. Finally, according to a 1:1 binding model, the data were analyzed, and the antibody-antigen binding kinetics parameters, including the association rate constant Ka, the dissociation rate constant Kd, the equilibrium dissociation constant KD, and the maximum binding signal Rmax, were fitted.
The association rate (Ka), dissociation rate (Kd), and binding affinity (KD) of the recombinant antibodies Lab306-huFc, Lab322-huFc, and Lab323-huFc with the human GUCY2C protein are shown in Table 5. The positive control antibody has good binding activity at the protein level, but has very weak binding at the cellular level. Lab322-huFc and Lab323-huFc, although weak in affinity, bind well to the cellular level, presumably due to differences in the conformation of the proteins and proteins at the viable cellular level.

[3] = target: T1, Cyno GUCY2C ECD (his-tagged cynomolgus …); test: BLI Gator, antibody on anti-human Fc probe, antigen in solution
Procedure: (§1) Next, we measured the affinity of the recombinant antibody by another method, and the specific procedures were as follows: the binding strength of the antibody to the antigen was assayed by acquiring and analyzing the signal change of the reflection interference spectrum on the surface of the optical probe by using thin film interference technology. First, the probe was equilibrated for 300 s with HBS-T+pH 7.4 (0.02% tween) as the mobile phase. 2 μg/mL of the antibody to be tested was captured by an anti-human FC probe (purchased from ProbeLife, PL168-160003) for 240 s, and then antigen proteins with the concentration of 200 nM and diluted two-fold were injected. Kon for 300 s and Koff for 600 s. The association and dissociation processes of the antibody with the antigen protein were recorded, and finally, the chip was regenerated using Glycine pH 2.0 (purchased from GE), wherein the mobile phase was HBS-T+pH 7.4 (0.02% tween), the regeneration time was 5 s, and the assay temperature was 30° C. Finally, according to a 1:1 binding model, the data were analyzed, and the antibody-antigen binding kinetics parameters, including the association rate constant Ka, the dissociation rate constant Kd, the equilibrium dissociation constant KD, and the maximum binding signal Rmax, were fitted. The association rate (Ka), dissociation rate (Kd), and binding affinity (KD) of the recombinant antibodies with the human GUCY2C and monkey GUCY2C proteins are shown in Table 6.

[4] = target: T2, Human GUCY2C ECD (his-tagged human …); test: as above
Procedure: as §1

[5] = target: T3, human GUCY2C protein, full length, on cells (human, UniProt P25092 24-1073); test: FACS on HT55 tumor cells (endogenous GUCY2C), MFI
T3 construct: whole, on cells; also called endogenous tumor cells HT55
Procedure: Then a complete medium was added to stop the digestion, and the cells were blown into a single cell suspension. After counting, the cells were centrifuged, and the cell pellet was resuspended to 2×10⁶ cells/mL in an FACS buffer (PBS+2% fetal bovine serum), and added to a 96-well FACS reaction plate at 100 μL/well. The plate was centrifuged, and the supernatant was discarded. An antibody sample to be tested (diluted in a 3-fold gradient from a starting concentration of 100 nM) was added at 50 μL/well and uniformly mixed with the cells, and the mixture was incubated at 4° C. for 1 h. […] The results were tested and analyzed by FACS (FACS Canto™, purchased from BD) after the plate was centrifuged and washed 3 times with a PBS buffer and resuspended with 100 μL of PBS. Data analysis was performed by software (FlowJo) to obtain the mean fluorescence intensity (MFI) of the cells. Then, analysis was performed by software (GraphPad Prism8), data were fitted, and EC50 values were calculated.
The binding of the recombinant antibody to the endogenous tumor cell HT55 was detected in the same manner.

EC50 (read off the curve) [1]: ~0.09 nM
Kd [2]: 15.5 nM
koff [2]: 0.000117 s⁻¹
kon [2]: 7550 M⁻¹ s⁻¹
Kd [3]: 0.489 nM
koff [3]: 0.000105 s⁻¹
kon [3]: 216000 M⁻¹ s⁻¹
Kd [4]: 0.371 nM
koff [4]: 7.86e-05 s⁻¹
kon [4]: 212000 M⁻¹ s⁻¹
EC50 (read off the curve) [5]: ~0.2 nM
B1: Lab322-huFc (Fc fusion)
chain: QLQLVESGGGLVQPGGSLRLSCAASVLNLDYYAITWFRQAPGKEREGVSCIQGRGTSTNYADSVKGRFTISRDRAKKTAYLQMNSLKPEDTATYYCAVRYVSYGRNTACGLLPESVDHWGQGTQVTVSS[human IgG1 Fc with C220S (EU numbers) not listed]
notes: also called recombinant antibody Lab322-huFc

EC50 (read off the curve) [1]: ~0.2 nM
Kd [2]: 1.83 nM
koff [2]: 0.000276 s⁻¹
kon [2]: 150000 M⁻¹ s⁻¹
Kd [3]: 1.08 nM
koff [3]: 0.000309 s⁻¹
kon [3]: 285000 M⁻¹ s⁻¹
Kd [4]: 0.969 nM
koff [4]: 0.000256 s⁻¹
kon [4]: 264000 M⁻¹ s⁻¹
EC50 (read off the curve) [5]: ~1 nM
B2: Lab306-huFc (Fc fusion)
chain: QLQLVESGGGLVQPGGSLRLSCVTSGFTLDDYAIGWFRQAPGKEREGVICLTSGGLPKYADSVKGRFTISRDNAKNTVYLRMDSLKPDDTAVYYCAASGATSRWNCPPQYDHWGQGTQVTVSS[human IgG1 Fc with C220S (EU numbers) not listed]
notes: No linker is stated between VHH and Fc; also called recombinant antibody Lab306-huFc
